Data taken from the supplement of paper PMC11417369.
± gives the standard deviation of the averaged measurements. The list shows a part of the results.

System: PfAP2-EXP AP2 domain (GST-tagged)
Assay: gcPBM binding intensity (ln(normalized median fluorescence intensity)); higher = stronger DNA binding
Summary of the method: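 The binding buffer was 1× PBS containing 1% milk, 0.2 mg/ml BSA, 0.5% salmon testes DNA and 0.03% Triton X-100. In it, GST-tagged P. falciparum DNA-binding domains expressed in E. coli were applied for 1 h to an Agilent 4 × 180k array of primer-extended double-stranded 36-bp intergenic genomic probes plus negative controls. Binding intensity, read with Alexa488 anti-GST antibody and a 488 nm scan, is the highest Masliner-normalised natural-log median intensity across replicate spots of either probe orientation.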

Row | Sequence | gcPBM binding intensity (ln)
1 | AAATTTATGTGTGCCTGTACATATCAAAGATTTAAG [XGTACX_site8547] | 8.49 ± 0.28
2 | TATAATGTATGTAGTGCACACCTCTATAATATATTA [CACACA_site8560] | 8.92 ± 0.14
3 | ATTCTACCACGCGATATACACACTTGTAGACATCTT [CACACA_site188] | 8.97 ± 0.49
4 | TGTATAATATTTGGTGCACACAAATTAACAACTGTT [CACACA_site9245] | 9.21 ± 0.32
5 | AATATTAAAATAAAAAGTACTTATTTATGTATGTTG [XGTACX_site2682] | 8.52 ± 0.21
6 | TATTTACAAAAAAAATATAAAAAATATAAAATATAT [CACACA_negctrl_site575] | 8.12 ± 0.31
7 | TTTATATAACAACAAAATGGAAATATATATGTATGT [TGCATGCA_negctrl_site98] | 8.68 ± 0.39
8 | AAAAAAAAAAAAGAACGTACAAATTAATTTATAGAA [XGTACX_site5584] | 8.75 ± 0.44
9 | CAGACATATTAAAAGAGTACATATATATATATATAT [XGTACX_site1158] | 10.3 ± 0.28
10 | TGTTTATTACTCAGGTGTACTCAATTTTTTTTTTTT [XGTACX_site3470] | 8.69 ± 0.36
11 | TACACAAATATATACATACACACATATATACGCATA [CACACA_site394] | 8.55 ± 0.45
12 | TAATATTGACTATATACACACATATATATATATATA [CACACA_site575] | 10.2 ± 0.28
13 | GAACAATATATTTGCACACAAAAAATATATATTTAT [CACACA_site3317] | 8.61 ± 0.31
14 | ATACAAGTATTAATTACACACTCAAAAAGAAAAAAC [CACACA_site5287] | 8.64 ± 0.46
15 | TAGATTTAAAAAAAAAAAAAATTTTTTTTTTTTTTT [TGCATGCA_negctrl_site593] | 8.24 ± 0.47
16 | GAATACTCATTTCTTTGTACATATATATGTGTATTT [XGTACX_site6411] | 8.97 ± 0.39
17 | GTTTACATCATTCTGGTGCAAAAAAAAAAAAAAATA | 8.67 ± 0.21
18 | GGATAAAAAATATGTACACACATATAGATATCTATA [CACACA_site2693] | 8.56 ± 0.46
19 | TTCATATGGAATAAAAGTACGTATTAAAACAATTTT [XGTACX_site8742] | 8.66 ± 0.35

Row | Sequence | gcPBM binding intensity (ln)
20 | CATATAAACAATAACACACACCTAGGTACATGGAAA [CACACA_site4615] | 8.94 ± 0.56
21 | CTTTTTAATTTATCGACACACGCATGAATAGAAATT [CACACA_site9112] | 8.54 ± 0.51
22 | AAAGCAAATAATAAGTGTACGGGTCAATATATGCGT [XGTACX_site1519] | 9.04 ± 0.5
23 | GTGTACAAAATATGGTAATAAAGTAGTTACATGAAT [CACACA_negctrl_site1775] | 8.93 ± 0.53
24 | CTAAATTGTTAATAGAGTACATTTGTATAATATAAG [XGTACX_site594] | 8.44 ± 0.13
25 | TTATGTTGTAAATACACACATACATATACATACACA [CACACA_site733] | 8.57 ± 0.37
26 | AATAAAATATAATAATTAATATATATATATATATAA [GTGCAC_negctrl_site457] | 8.23 ± 0.22
27 | TATGTGAAATAAGGATGTACAATTTTGATTTCCCCA [XGTACX_site8389] | 8.86 ± 0.52
28 | TTTAATGAAAGAAACACATACGTATCAAAATATATG [TGCATGCA_negctrl_site510] | 8.76 ± 0.41
29 | TACGTTGTATATTTTTGTACATATTGAATTACAAAA [XGTACX_site5906] | 8.53 ± 0.32
30 | TTTTAATAATTTATAAAAAAAAAAAAAAAATAAATA [TGCATGCA_negctrl_site419] | 8.21 ± 0.49
31 | CATAGAATAATTTATTGTACGTGCATGCTATTTTTT [XGTACX_site8984] | 9.22 ± 0.42
32 | TATAATATTTATATAACACACATATATATTTATTTA [CACACA_site280] | 8.15 ± 0.24
33 | AATGCTATCTTCTTATTTTTCATACACAACATGAAC [CACACA_negctrl_site1809] | 8.95 ± 0.44
34 | AAAATAAATTTTTATGTTATATATACAATTTCTCTA [CACACA_negctrl_site1760] | 8.12 ± 0.22
35 | ATTAAATATATGATGTGTACATATTCGTGTATGTTT [XGTACX_site2141] | 8.48 ± 0.33
36 | AAACAGAATACATATACACACATACAAAAAAGTGCA [CACACA_site8235] | 9 ± 0.24
37 | TATACATTTTTATAAAGTACACAAAAATAAATATAA [XGTACX_site1647] | 8.54 ± 0.33
38 | TTATGAAATAGAATAACACACATATTTATATATGTG [CACACA_site2050] | 8.14 ± 0.44

Row | Sequence | gcPBM binding intensity (ln)
39 | TTTTTTTATATTTTTAGTACACATTGGTATATATAT [XGTACX_site4114] | 8.79 ± 0.42
40 | TATTTTTTTAAAAATACACACATAAAATCATGAAAA [CACACA_site1085] | 8.61 ± 0.47
41 | ATATATATATGTCAAAGTACTAAAAATATATACATA [XGTACX_site3397] | 9.5 ± 0.028
42 | TTTATTTATCTGAACACATGCAGACAAATAACATAT [TGCATGCA_site929] | 8.88 ± 0.32
43 | TATCACATATTATGATGTACAAGGATTCTGACTAAT [XGTACX_site1196] | 8.45 ± 0.4
44 | CATAAACTTTATAACACACACTTATAAATATAAATA [CACACA_site6646] | 8.41 ± 0.4
45 | ATTATATATAAACACACACACATGCATGCACATATA [CACACA_site4237] | 10 ± 0.26
46 | GTTATAAAATATGGCACACAAAATGTAAGTAAATGA [CACACA_site1458] | 8.97 ± 0.42
47 | GATCTTTAAATTTATTGTACATAAATGTATATGTTA [XGTACX_site1107] | 8.59 ± 0.45
48 | ATATATTTTGTTATGGTGCGTAAGAAATATATTCTT [GTGCAC_site9825] | 8.65 ± 0.23
49 | TATATATAGAAACACACACACATATATATATATTTT [CACACA_site2540] | 8.56 ± 0.77
50 | TATATATTATAAAATAGTACACAGAATTTAAATATA [XGTACX_site100] | 8.69 ± 0.46
51 | AATATTTTTTTATAAACACACATATAAATAAATATA [CACACA_site7622] | 8.41 ± 0.4
52 | TCTTTTAAACAGTACACACACACATATATATATATA [CACACA_site924] | 10.3 ± 0.22
53 | TTGTTGATTGTTATTTATCATTAGATGTAAAATATG [CACACA_negctrl_site927] | 8.39 ± 0.3
54 | TATTATATGTATTGCACACCTTCAACAACTACTTCT [CACACA_site655] | 9.03 ± 0.14
55 | GGGCATATAATATAAAGTACAGGACTATAAAAATAT [XGTACX_site4481] | 8.55 ± 0.38
56 | ATATCTATAATAAACACACACATATACCTATAGGTA [CACACA_site7596] | 8.66 ± 0.54
